Some of the results follow.
Test system: T1, C. trachomatis L2/434/Bu expressing GFP (CTL2-GFP)
T1 construct: L2/434/Bu GFP intracellular growth in HeLa cells
Design: species or system HeLa; C. trachomatis total inclusion area by high-content imaging, normalised to DMSO
Settings: total inclusion area; 28.5 h, 10 µM; inhibitor
How it was run: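 Imaging read-out: GFP inclusions and Hoechst nuclei captured by high-content imaging after fixation. Inclusion area/number = chlamydial growth; nuclei count = host cell viability. MIC calculated per earlier method.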

Compound	% of control remaining
Cc1ccc(S(=O)(=O)NCCOc2ccc(Cl)cc2)cc1[N+](=O)[O-] [CBK263268]	99.8208
CCN(CC)S(=O)(=O)c1c(C)[nH]c(=O)[nH]c1=O [CBK018721]	105.813
Cc1ccc(SC(C)C(=O)Nn2cnnc2)cc1 (stereo not shown) [CBK268570]	105.547
COc1cc(C(CC(C)NC(C)(C)C)c2ccccc2)ccc1OCc1ccccc1 (stereo not shown) [CBK017901]	23.1009
O=C(CSc1nnc(CN2CCOCC2)n1-c1ccc(Cl)cc1)N1CCN(c2ccccc2)CC1 [CBK269088]	92.4847
CC(C)(C)OC(=O)N1CCC(Sc2ccc(-c3ccco3)cc2)CC1 [CBK122552]	85.4759
N#CCSc1nc(-c2cccnc2)ccc1C(=O)O [CBK269387]	76.5303
CN(C)c1cccc(-c2ccc(Nc3ccc(N4CCOCC4)cc3)nc2)c1 [CBK037735]	118.566
CC(Sc1nc(N)cc(=O)[nH]1)C(=O)Nc1ccc(S(N)(=O)=O)cc1 (stereo not shown) [CBK266191]	116.467
CCN(CC)CCSc1nc2sc3c(c2c(=O)n1-c1ccc(OC)cc1)CCCC3 [CBK263308]	96.0971
CCn1c(Cc2c(C)[nH]c3ccccc23)nnc1SCC(=O)NC12CC3CC(CC(C3)C1)C2 [CBK267529]	112.702
Nc1nc(SCCc2ccccc2)nc2sc3c(c12)CCCC3 [CBK263445]	105.708
C=CCNC(=S)Nc1sc2c(c1C(=O)OCC)CC(C)CC2 (stereo not shown) [CBK268778]	104.906
CC1(C)CC(=O)C=C(C(=O)Nc2ccccc2N2CCCNCC2)O1 [CBK038935T]	50.7932
Cc1ccc2nc(NCCC(=O)O)nc(-c3ccccc3)c2c1 [CBK266537]	129.382
CC(Oc1cc(Cl)ccc1Cl)c1nnc(S)n1C (stereo not shown) [CBK288376]	44.3038
N[C@H]1C[C@H]2C(=O)NC[C@@H](CCC(=O)NCc3cccs3)N2C1 [CBK289005]	105.457
CC(Oc1cccc2ccccc12)C(=O)NN (stereo not shown) [CBK261209]	93.1648
CN1C(=O)COc2ccccc2C/C=C/C[C@@H]2[C@H]1CCCN2S(=O)(=O)N1CCOCC1 [CBK292063]	114.383
CCCC/C=C/c1cnc(N)c(Nc2ccc(OC)cc2)n1 [CBK063890]	97.2797

Compound	% of control remaining
Cc1cc(COc2nc3ccccc3nc2NC(C)C(C)C)no1 (stereo not shown) [CBK174007]	92.627
Cc1c(Br)c([N+](=O)[O-])nn1C(C)C(=O)Nc1sc2c(c1C(N)=O)CCCC2 (stereo not shown) [CBK268914]	90.2689
Cc1onc(-c2ccccc2)c1C(=O)N1CCN(CCN2CCCC2)CC1 [CBK158558]	104.251
O=C(NCCc1ccc(Cl)cc1)C1(Cc2ccc(-c3ccncc3)cc2)CCOCC1 [CBK285570]	75.1035
CCOc1ccccc1C(=O)Nc1ccc(O)cc1 [CBK099037]	125.746
O=C(CSc1nnc(-c2ccccc2Cl)[nH]1)c1ccc(O)c(O)c1 [CBK267693]	95.6015
CO/C(=N\S(=O)(=O)c1ccccc1)c1ccccc1 [CBK023221]	69.3165
Cn1c(=O)c2c(nc(CN3CCN(Cc4ccccc4)CC3)n2CCc2ccccc2)n(C)c1=O [CBK269523]	95.6728
COc1cc(CNc2nccnc2-c2ccco2)cc(OC)c1OC [CBK037320]	95.49
CCOc1ccccc1NC(=O)C(C)Oc1ccc(OC)cc1 (stereo not shown) [CBK266648]	5.897
Clc1ccc(-c2nccnc2OCc2ccccn2)cc1Cl [CBK107108]	93.3423
CC(C)c1ccsc1C(=O)N1CCC2(C1)NC(=O)NC2=O (stereo not shown) [CBK305188]	78.6882
O=C(NCC1CCOC1)c1ccc(-c2ccccc2CO)cc1 (stereo not shown) [CBK306616]	36.4633
Cc1ccccc1Cc1cccc(C2CCN(S(=O)(=O)c3cn[nH]c3)CC2)n1 [CBK286125]	107.201
COC(=O)c1c(NC(=S)Nc2cnccn2)sc2c1CCC2 [CBK266935]	95.7427
O=C(O)CSc1nc2c(-c3ccco3)c3c(nc2o1)CCCC3 [CBK269266]	99.8774
OC1CCC(Nc2cncc(-c3cccc(F)c3)n2)CC1 (stereo not shown) [CBK065449]	121.425
CCNC(=O)N(C)c1c(CC)nc2c(OCc3ccc(S(C)(=O)=O)cc3)cccn12 [CBK147797]	93.9399
Cn1cc(CC(=O)Nc2ccc(N3CCNCC3)nc2)c2ccccc21 [CBK028275T]	72.4573
OCCN(Cc1ccccc1)Cc1ccc(Cl)c(Cl)c1 [CBK261908]	94.2503

Source: publication PMC12040169 (PLOS Biology, 2025)
